The labels stand for the following.
B1: tRNA (parent)
chain: CUCUCGGUAGCCAAGUUGGUUUAAGGCGCAAGACUUUAAUUUAUCACUACGAAAUCUUGAGAUCGGGCGUUCGACUCGCCCCCGGGAGAUUUUUUCCUCGAGCAA

Variants at the floor of the assay are shown more often than the library holds them.

Variants of B1 are the subject of this data set. The experiment in a line: nonsense suppression (GFP-seq) (ratio to wild type); higher = more function; SUP4oc tRNA, yeast GFP reporter sort-seq. The method in brief:
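Yeast carrying genome-integrated SUP4oc tRNA variants from a library with ~3% random mutations were grown in raffinose/galactose medium with 80 mg/L adenine. Each strain also carried a galactose-driven GFP ochre reporter and RFP. Cells were sorted into GFP/RFP bins, and each bin was Illumina-sequenced (phred ≥30). Nonsense suppression (GFPSEQ) is the bin median GFP/RFP, weighted by each variant's estimated cell share per bin, relative to wild-type SUP4oc; variants needed ≥100 reads and ≥30 cells.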
For the variant G67C U76G G86A, the nonsense suppression was at most 0.026.
On to G10U A13C U63G, for which the nonsense suppression is at most 0.026.
For the variant U2G A9U, the nonsense suppression was 0.0677.
On to G59A G61A U71G G78U, for which the nonsense suppression was at most 0.026.
On to C1U C27A A89C, for which the nonsense suppression is at most 0.026.
The same measure for A13C C29A C68U: at most 0.026; for C34G G66C: at most 0.026; for A33U C79U G85A: at most 0.026.
Consider U2A A13G A60G G67C, for which the nonsense suppression is at most 0.026.
The same measure for G7C G10U G28C C56U A62C: at most 0.026.
Regarding G59A G86U, the nonsense suppression is at most 0.026.
In the case of U57C A60C G61C U70A C77G, the nonsense suppression was at most 0.026.
Take U8A U21A A87C: the nonsense suppression was at most 0.026.
For the variant U21A C27A A31G, the nonsense suppression was at most 0.026.
On to U8C A9U A54U, for which the nonsense suppression was at most 0.026.
For the variant A14G C77A, the nonsense suppression is at most 0.026.
As for C1U A14C C56U, the nonsense suppression is at most 0.026.
On to G7C A33G A87G, for which the nonsense suppression is at most 0.026.
For the variant C11G U58G G69U, the nonsense suppression is at most 0.026.
In the case of U58A C64U it was at most 0.026; in that of U22C U58A G61A U71G, at most 0.026; in that of U22G A24U A87G A89U, at most 0.026.
On to G61U G65A G86U, for which the nonsense suppression is at most 0.026.
U2G C29U: the nonsense suppression is at most 0.026.
For the variant U55A C80G, the nonsense suppression was at most 0.026.
In the case of C27A A33G A74G G84U it was at most 0.026.
For the variant A24C G28U C79A, the nonsense suppression is at most 0.026.
As to A23U G65C G86A G88C, the nonsense suppression was at most 0.026.
In the case of A33U C68G A74C, the nonsense suppression was at most 0.026.
The same measure for C68A C77A: at most 0.026.
Consider U2C G19C U35A, for which the nonsense suppression was at most 0.026.
In the case of C12G G19A, the nonsense suppression is at most 0.026.
For the variant U58G A60G G85U, the nonsense suppression is at most 0.026.
For the variant C79A A87U, the nonsense suppression is at most 0.026.
The same measure for A31U C34G U71A: at most 0.026; for A31U C81U: 0.0322.
For the variant A9U U35G G73A A74U, the nonsense suppression was at most 0.026.
Take C29A A30U A60C G65C: the nonsense suppression was at most 0.026.
The same measure for C5A C29G: at most 0.026; for A62C G69A: at most 0.026.
A33U C68U C80U: the nonsense suppression was at most 0.026.
On to C5G G10A U21C, for which the nonsense suppression was at most 0.026.
For C56A U71C, the nonsense suppression is at most 0.026.
In the case of C5U A24U U70C A74C G84C, the nonsense suppression was at most 0.026.
Turning to U57G, the nonsense suppression is at most 0.026.
G19C A24G: the nonsense suppression is at most 0.026.
Take A13G G85C: the nonsense suppression is at most 0.026.
Take C56A G61C: the nonsense suppression was at most 0.026.
In the case of A14U G28C, the nonsense suppression was at most 0.026.
Regarding C34A C56U G61U, the nonsense suppression was at most 0.026.
In the case of A33C A54C U57G C80U it was at most 0.026; in that of A60C U63C C68G, at most 0.026.
For U57C A74G, the nonsense suppression is at most 0.026.
As for G59A G66U G73A C80A, the nonsense suppression is at most 0.026.
As for A14U U22G A24U G61U G67C A89U, the nonsense suppression was at most 0.026.
Regarding G15A U21A G65A, the nonsense suppression was at most 0.026.
In the case of U2G G67C it was at most 0.026.
As for C1G C11A U16G G59A A60C, the nonsense suppression is at most 0.026.
In the case of U20C U35A U57C G59A C80U it was at most 0.026.
In the case of U63C A87C it was at most 0.026; in that of A13C A54G U70G, at most 0.026; in that of C5U C34U A54C G69U G78U, at most 0.026.
With C3A G6U U35G U71A, the nonsense suppression was at most 0.026.
The same measure for C29G C56U: at most 0.026; for C5G A30G C80U: at most 0.026.
In the case of G6C A23C A60U C64U G78A C83G, the nonsense suppression is at most 0.026.
C1G U17C C34G C72A: the nonsense suppression was at most 0.026.
Turning to A23G A74U G86A, the nonsense suppression was at most 0.026.
As to U57G C75A, the nonsense suppression was at most 0.026.
G19C U55G U58A: the nonsense suppression was at most 0.026.
G6A A23G G25C U63C C80G: the nonsense suppression is at most 0.026.
In the case of A14C G59U it was at most 0.026.
Consider G69A G88A, for which the nonsense suppression was at most 0.026.
For the variant U4A A23G C79G, the nonsense suppression was at most 0.026.
The same measure for U2C G18C G25U A54C U57C G61U U70G: at most 0.026; for A24U G78A C81G: at most 0.026; for U20G G65A U76G A87U: at most 0.026.
Take G7C G59A U63G G73A: the nonsense suppression is at most 0.026.
Take G7U U55C C56G: the nonsense suppression was at most 0.026.
As to G15C G19U G66C, the nonsense suppression was at most 0.026.
The same measure for C3A U17G: at most 0.026.
In the case of G6C C11G U20A it was at most 0.026; in that of A9U A14G C34A A54G G84C, at most 0.026.

For the origin of these results see the RNAGym collection of RNA variant scans (doi:10.1101/gad.245936.114).
